Screen size: about 52,000 compounds; about 4,300 (8.3%) were called active. Cut-off read from the data, not from the text of the source: active = survival mostly below about 52% (no sharp cut-off); inactive = mostly above about 56%. The list shows a part of the results.
These molecules were tested on DeltatarO mutant (assay: growth inhibition of S. aureus wild type versus tarO mutant, primary screen, teichoic acid synthesis inhibitors, RN4220, OD600 (AID 463173)). Conditions: OD600, 18 h, stronger effect = lower value, screened at 18.75 µg/mL (by protocol).

| SMILES | survival |
| --- | --- |
| CCOc1cc(C(=O)NCCc2csc3nc(-c4ccccc4F)nn23)cc(OCC)c1OCC | inactive: 80% |
| Cc1nn(CCCC(=O)NCCc2ccc(Cl)cc2)c(=O)c2c1sc1ccccc12 | inactive: 72% |
| Cc1ccccc1OCC(=O)Nc1ccccc1C(=O)OCc1cc(=O)n2ccsc2n1 | inactive: 118% |
| Cc1cc(C(F)F)n2nc(C(=O)Nc3cccc(Cl)c3C)nc2n1 | inactive: 82% |
| COc1cccc(Cn2c(CNC(=O)CCc3ccccc3)nc3cccnc32)c1 | inactive: 87% |
| Cc1c(Cl)cccc1NC(=O)CCS(=O)(=O)c1ccc2c(c1)oc(=O)n2C | inactive: 99% |
| CC(C)(C)OC(=O)N1CCN(c2ccc(NC(=O)Cn3nnc(-c4ccccc4)n3)cc2)CC1 | inactive: 80% |
| COc1cccc(CNC(=O)CCn2nc(C)c3c(C)n(-c4ccccc4)nc3c2=O)c1 | inactive: 83% |
| Cc1cc(C)cc(NC(=O)Cn2c(=O)n(-c3cc(C)cc(C)c3)c(=O)c3oc4ccccc4c32)c1 | inactive: 63% |
| CCOC(=O)Cn1c(=O)n(C2CCCCC2)c2nc(-c3ccc(CC)cc3)nc(C(N)=O)c21 | inactive: 71% |
| Cn1nc(C(=O)NCc2cccc(Cl)c2)c2c1-c1ccccc1S(=O)(=O)C2 | inactive: 60% |
| N#CC1=C(N)N2C(=C(C#N)C13CCCC3)Nc1ccccc12 | inactive: 86% |
| COCCNc1c(-c2ccccc2)nc2cc(C)ccn12 | inactive: 69% |
| Cc1ccccc1N(C)S(=O)(=O)c1nnc(NC(=O)c2ccccc2F)s1 | active: 27% |
| COc1ccc(-n2ccnc2SCC(=O)Nc2nnc(C)s2)cc1 | inactive: 123% |
| COc1cc(CN2CCc3nc(N4CCN(c5ncccn5)CC4)ncc3C2)cc(OC)c1OC | inactive: 101% |
| COC(=O)C(C)Sc1nc2c(cnn2-c2ccc(F)cc2)c(=O)[nH]1 (stereo not given) | inactive: 66% |
| CCOc1cc(C2CC(=O)Nc3cc4c(cc32)OCCO4)ccc1O (stereo not given) | inactive: 92% |
| CCOc1ccccc1NS(=O)(=O)c1ccc2c(c1)CC(C)N2C(=O)C1CCC1 (stereo not given) | inactive: 71% |
| N#Cc1c(NC(=O)c2cccnc2)sc2c1CCCC2 | inactive: 90% |
| COc1cccc(C(=O)N(Cc2cccnc2)c2nc3c(OC)ccc(C)c3s2)c1OC | inactive: 73% |
| CCOC(=O)c1c(C)c(C(=O)NCc2ccc(OC)cc2)c(C)n1CC | inactive: 102% |
| COc1ccc(NCc2cc3cc4c(cc3n(CC(=O)Nc3ccc(F)cc3)c2=O)OCCO4)cc1 | inactive: 80% |
| COc1ccc(C2(C(=O)NC(C)C)CCOCC2)cc1 | inactive: 94% |
| O=C(CSc1nc2ccccc2nc1Cc1ccc(Cl)cc1)N1CCCc2ccccc21 | inactive: 78% |

— PubChem BioAssay AID463173 (ICCB-Longwood Screening Facility, Harvard Medical School, 2010)
